Data reported in patent publication US20130288895A1, “METHODS AND COMPOSITIONS FOR WEED CONTROL” (priority 2011, published 2013).

Columns and labels:
[1] = system: glyphosate-resistant Palmer amaranth (Amaranthus palmeri R-22) plants; experiment: EPSPS promoter tiling: 25-mer ssDNA oligonucleotides hand applied, then 2× WeatherMax; details: for percent control: 16 nmol/plant followed by 2× WMax, Palmer R-22, ten days after treatment, in combination with dsRNA5 (EPSPS) and dsRNATIF1; for herbicidal control of Palmer amaranth, second round of efficacy testing: 12 individual oligonucleotides of sets 8 and 13
Description: One non-limiting example of a method for selecting a polynucleotide for use in a composition for topical application to the surface of a parent plant involves the mapping of efficacious oligonucleotide or polynucleotide sequences (or segments of sequences) using a whole-gene (or full-length reference sequence) tiling array approach. The available full-length reference sequence is divided into “tiling sequences” or segments of 25 contiguous nucleotides along the entire length of the available sequence. For convenience, an Excel template was developed to allow convenient generation of sense and anti-sense tiling sequences for any given full-length reference sequence, providing as output a list of sense and anti-sense sequences for submission to oligonucleotide synthesis providers such as IDT (Integrated DNA Technologies, Coralville, Iowa). Oligonucleotides corresponding to each 25-mer tiling sequence (in sense, anti-sense, or both sense and anti-sense orientation) are synthesized for efficacy screening. Oligonucleotides are screened in sets. It is clear to one skilled in the art that the tiling sequences can be of sizes other than 25 nucleotides (such as about 18, 19, 20, 21, 22, 23, or 24 nucleotides, or larger than 25 nucleotides), that these tiling sequences can be designed to be contiguous segments with no overlap or to overlap adjacent segments, and that such tiling sequences can be grouped into sets of any size. For example, sets of five individual oligonucleotides are pooled into a single polynucleotide composition using 20 mM phosphate buffer and 2 percent w/v ammonium sulfate and 1 percent Silwet L-77, and topically applied to plants at a rate known to be efficacious for the plant species of interest (e.g., 4 nanomoles per plant). Those oligonucleotide sets showing better efficacy are then re-screened by testing the individual component oligonucleotides for efficacy.
A specific example of selecting a polynucleotide for use in a composition for topical application to the surface of a parent plant follows. An EPSPS promoter 1302 nucleotide sequence was identified from genomic sequence of Palmer amaranth (Amaranthus palmeri) as having the sequence SEQ ID NO: 3543. A 1152 nucleotide segment of the 1302 nucleotides EPSPS promoter sequence was used in this example.
The 1152-nt EPSPS promoter sequence was “tiled” (i.e., the full-length sequence covered by overlapping shorter sequences) by 25-mer anti-sense (AS) and sense (S) ssDNAs. A total of 96 25-mer ssDNA oligonucleotides were designed and grouped into 16 sets of 6 ssDNA oligonucleotides each (each set covering 150 contiguous nucleotides of the promoter sequence). The oligonucleotides were synthesized by IDT in 96-well plate format. Oligonucleotide sequences are provided in Table 3 (SEQ ID NO: 3588-3779).
Oligonucleotide sets assigned an even number n contain oligonucleotides with a sequence shifted by 12 or 13 nucleotides (nt) relative to the 3′ end of the oligonucleotides in sets assigned a number equal to (n−1). For example, the oligonucleotide sequences in set number 2 have a sequence shifted by 12 or 13 nt relative to the 3′ end of the oligonucleotides in set number 1.
The ssDNA oligonucleotides were formulated as 100 micromolar (per oligonucleotide) mixtures (each consisting of a set of 6 oligonucleotides) in 20 millimolar phosphate buffer (pH 7.0), 2% ammonium sulfate, 1% Silwet® L-77, and were hand applied by pipetting to the surface of four fully expanded source leaves of glyphosate-resistant Palmer amaranth (Amaranthus palmeri R-22) plants. Each leaf received 10 microliters of 100 micromolar ssDNA solution (a total of 1 nanomole per oligonucleotide per leaf for a total 4 nanomole per oligonucleotide per plant). Silwet-containing buffer without oligonucleotides was applied as a negative control. A composition of four EPSPS short dsRNA1, 3, 4 and 5 (see Example 6) were applied at 4 nm each oligonucleotide per plant as positive control. […]

[2] = system: cotton plants transformed with the CP4 EPSPS gene; experiment: CP4 EPSPS dsRNA triggers plus RoundUp Ultra on transgenic glyphosate tolerant cotton; details: trigger 210, 630, 1890 pmol; RoundUp Ultra 1.5 a.e. lb/acre two-three days later; FIG. 3
Description: In this example, a gene coding sequence for Agrobacterium tumefaciens CP4 EPSPS (SEQ ID NO: 1) was targeted with two dsRNA trigger molecules referred to as CP4-12 (82-462 of SEQ ID NO:1) a 381 polynucleotide, and CP4-34 (594-1043 of SEQ ID NO:1) a 450 polynucleotide. Corn and cotton plants that were transformed with the CP4 EPSPS gene and are resistant to glyphosate were planted in pots in a greenhouse along with negative isolines for each and grown to the first true leaf emergence stage then treated with a trigger solution containing 0.5% Silwet L77, 2% ammonium sulfate, 20 mM Na Phoshpate (pH 6.8) at different rates of trigger amount, 0 picomoles (pmol), 210 pmol, 630 pmol and 1890 pmol. For each replication (8-10 plants), two fully expanded cotyledons were treated by pipette with 50 microliters of trigger solution each, then sprayed two-three days later with 1.5 a.e.lb/acre) of RoundUp™ Ultra (glyphosate, Monsanto, St Louis, Mo.). The cotton and corn plants were scored for stunting and injury 7-16 days after spray treatment. FIGS. 2 and 3 show the corn and cotton plant results, respectively. […] The nontransgenic control is labeled “Minus CP4”, these plant were killed by the RoundUp treatment.

| Molecule | percent control [1] [%] | herbicidal control of Palmer amaranth, second round of efficacy testing [1] | symptoms observed on the cotton plants [2] |
| --- | --- | --- | --- |
| CTCTTTGTTTTTCTTCTGCCAATTT (antisense CTCTTTGTTTTTCTTCTGCCAATTT; DNA, backbone and methylation of C not given here; listed as Amaranthus palmeri) [AS83-DNA-25-wt] | 99 | better herbicidal control | – |
| ttcaattataatcttaaaggtttca (antisense TTCAATTATAATCTTAAAGGTTTCA; DNA, backbone and methylation of C not given here; listed as Amaranthus palmeri) [AS81] | 98 | better herbicidal control | – |
| agaaccaagttataggctgactttc (antisense AGAACCAAGTTATAGGCTGACTTTC; DNA, backbone and methylation of C not given here; listed as Amaranthus palmeri) [AS44] | – | better herbicidal control | – |
| acaacttgaatgaattcgagggact (antisense ACAACTTGAATGAATTCGAGGGACT; DNA, backbone and methylation of C not given here; listed as Amaranthus palmeri) [AS48] | – | better herbicidal control | – |
| aattttgaccttaaaaatatcaatt (antisense AATTTTGACCTTAAAAATATCAATT; DNA, backbone and methylation of C not given here; listed as Amaranthus palmeri) [AS79] | 95 | better herbicidal control | – |
| CP4-34: dsRNA trigger, 594-1043 of SEQ ID NO:1 (CP4 EPSPS), a 450 polynucleotide (nucleic acid, listed as Agrobacterium tumefaciens, dsRNA form) DNA: CGATCATACGGAAAAGATGCTGCAGGGCTTTGGCGCCAACCTTACCGTCGAGACGGATGCGGACGGCGTGCGCACCATCCGCCTGGAAGGCCGCGGCAAGCTCACCGGCCAAGTCATCGACGTGCCGGGCGACCCGTCCTCGACGGCCTTCCCGCTGGTTGCGGCCCTGCTTGTTCCGGGCTCCGACGTCACCATCCTCAACGTGCTGATGAACCCCACCCGCACCGGCCTCATCCTGACGCTGCAGGAAATGGGCGCCGACATCGAAGTCATCAACCCGCGCCTTGCCGGCGGCGAAGACGTGGCGGACCTGCGCGTTCGCTCCTCCACGCTGAAGGGCGTCACGGTGCCGGAAGACCGCGCGCCTTCGATGATCGACGAATATCCGATTCTCGCTGTCGCCGCCGCCTTCGCGGAAGGGGCGACCGTGATGAACGGTCTGGAAGAACT | – | – | severe stunting and death of the apical meristem |
| CP4-12: dsRNA trigger, 82-462 of SEQ ID NO:1 (CP4 EPSPS), a 381 polynucleotide (nucleic acid, listed as Agrobacterium tumefaciens, dsRNA form) DNA: ATCTCCCACCGGTCCTTCATGTTCGGCGGTCTCGCGAGCGGTGAAACGCGCATCACCGGCCTTCTGGAAGGCGAGGACGTCATCAATACGGGCAAGGCCATGCAGGCCATGGGCGCCAGGATCCGTAAGGAAGGCGACACCTGGATCATCGATGGCGTCGGCAATGGCGGCCTCCTGGCGCCTGAGGCGCCGCTCGATTTCGGCAATGCCGCCACGGGCTGCCGCCTGACCATGGGCCTCGTCGGGGTCTACGATTTCGACAGCACCTTCATCGGCGACGCCTCGCTCACAAAGCGCCCGATGGGCCGCGTGTTGAACCCGCTGCGCGAAATGGGCGTGCAGGTGAAATCGGAAGACGGTGACCGTCTTCCCGTTACCTTG | – | – | severe stunting and death of the apical meristem |
